Measured values reported in ChEMBL document CHEMBL4888484, “Replenishing the malaria drug discovery pipeline: Screening and hit evaluation of the MMV Hit Generation Library 1 (HGL1) against asexual blood stage Plasmodium falciparum ,using a nano luciferase reporter read-out” (2022).
About 540 (0.36%) of roughly 150,000 compounds showed an effect of 50% or more. This is one part of the list.

Test system: Plasmodium falciparum
Test: Primary screen in NF54 nanoGlo assay, in single point, at 2uM, 72h; a lower Z score goes with more inhibition
Type: functional, Erythrocyte
Conditions: timepoint 72 hour

Compound | % Inhibition | Z score
COc1ccc(CC(=O)N[C@H]2CC[C@H](Oc3nccnc3C#N)CC2)cc1 | 14% | -1.6
Cc1cc(-c2nc(C(=O)NCCN(C)CC(F)(F)F)co2)ccn1 | 2% | -0.26
CCc1nnc2n1C[C@@H](CNc1nc3ccccc3s1)CC2 | -2% | 0.33
CN(Cc1nc(-c2ccco2)no1)[C@H]1CS(=O)(=O)c2ccc(Cl)cc21 | -5% | 0.69
CNC(=O)C1(NC(=O)COc2ccc3ccccc3c2)CCCC1 | -2% | 0.26
Cc1nc(C#N)c(N)nc1NCC1(O)CCCCCC1 | 3% | -0.42
C[C@H](NC(=O)C1=NCCN1)c1ccc(F)cc1 | -10% | 0.93
O=C(Nc1ccc2c(c1)OCCCO2)C1C2CCC(C2)N1C(=O)c1ccccc1 (stereo not given) | 15% | -1.76
COCCNC(=O)c1nnn2c1CO[C@H](c1ccccc1)C2 | -5% | 0.53
CCOCCOc1nc(-c2ccccc2F)n(-c2ccc(NC(=O)c3ccc(F)cc3)cc2)n1 | -16% | 1.73
Cc1cc(CCC(=O)Nc2nnn[nH]2)ccc1Br | 36% | -0.97
COCCN1CN(C(=O)Nc2ccnc(C)n2)CC1=O | 34% | -3.82
O=C(c1n[nH]c2ccccc12)N1CCC(Cn2cnc(C3CC3)cc2=O)CC1 | -7% | 1.04
O=C(CC1CCN(S(=O)(=O)c2cccs2)CC1)NC1CCCCC1 | -15% | 1.96
CN(Cc1ccccc1)C(=O)c1coc(CN(Cc2ccc3c(c2)OCO3)Cc2ccc(Cl)cc2Cl)n1 | 4% | -0.7
O=C(NC[C@@H](c1cccs1)N1CCCCC1)c1ccccc1F | -15% | 2.8
O=c1c2cc(Cl)ccc2ncn1C[C@H](O)COCc1ccccc1 | -10% | 1.65
CCN(C(=O)c1cnn(C2CC2)c1)c1cccc(C)c1F | -2% | 0.33
CN(Cc1ncon1)C(=O)c1cc(Cl)cn1C | 3% | -0.51
COc1ccccc1NC(=O)[C@H]1CCCN(c2nc3c(s2)c(C)nn3-c2cccc(F)c2)C1 | -11% | 1.44
O=S(=O)(c1ccc2c(c1)OCCO2)N1CCC[C@H](c2nccs2)C1 | -6% | 0.68
O=C(Cc1cscn1)Nc1cc(S(=O)(=O)N2CCOCC2)ccc1F | -10% | 0.94

Compound | % Inhibition | Z score
c1ccc2c(c1)C[C@@H](c1nnc(NCc3cscn3)o1)O2 | -6% | 0.96
CC1(C)CN(C(C(=O)O)c2ccccc2)CC(COc2ccccc2)O1 (stereo not given) | 1% | -0.14
COCC(C)(C)N(C)C(=O)c1cc(C)nc(C(F)(F)F)n1 | -1% | 0.08
C[C@@H](c1ccccn1)N(C)Cc1cccnc1N | 9% | -1.13
CCn1cncc1S(=O)(=O)N1CCC[C@H](C)C1 | -8% | 0.89
CC1=NS(=O)(=O)N(C)C=C1C(=O)OCc1ccc(F)c(F)c1 | 7% | -0.62
Cc1nnc(CN(C)C[C@H]2CCN(c3ccccc3)C2)s1 | -1% | 0.2
N#CCc1ccc(NCc2csc(C3CC3)n2)cc1 | -7% | 0.74
O=C(Nc1ccon1)C1CCN(S(=O)(=O)c2ccc(Br)cc2)CC1 | -14% | 2.37
CCc1ccccc1CN1C[C@@H]2CC[C@H]1CN(C(=O)c1ccccc1)C2 | -12% | 2
Cc1ccc(S(=O)(=O)C(=O)Nc2sc3c(c2C(N)=O)CCCCC3)cc1 | -1% | 0.11
O=C(CO)Nc1ccc(Cl)cc1F | -12% | 1.41
COc1ccc(NC(=O)Cc2nnc(Nc3ccccc3)s2)cc1OC | -15% | 1.87
Cn1ncc(CNC(=O)N[C@H]2CCOCC23CCCC3)n1 | 0% | -0.06
Cc1ccc(NC(C)Cc2ccno2)c(OCC2CCCO2)c1 (stereo not given) | 13% | -1.71
O=C1NCCN1CC1CCN(Cc2ncnn2-c2ccccc2)CC1 | -10% | 1.49
Cc1ccc(C)c(S(=O)(=O)NCC(=O)N2CC(Oc3cc(C)n(C4CC4)c(=O)c3)C2)c1 | -17% | 1.89
CC(NC(=O)CC1CCCCC1)C(=O)NC1C2CCC(C2)C1C(N)=O (stereo not given) | -1% | 0.16
CN1CCC(NC(=O)c2n[nH]c3c2CN(C(=O)c2ccc(C(F)(F)F)cc2)CC3)CC1 | 5% | -0.84
CC[C@@H](C(=O)Nc1c(C)cc(C)cc1C)n1cnc2onc(-c3ccc(Cl)cc3)c2c1=O | 11% | -1.61
Cc1occc1NC(=O)Nc1ccccc1CO | 8% | -0.89
O=C(CCn1ccc2ccccc21)N1CCc2nc[nH]c2C1 | -6% | 0.82

Compound | % Inhibition | Z score
COc1ccc(-c2nc([C@H]3CC(=O)N(c4ccc(Cl)cc4)C3)no2)cc1OC | -17% | 1.53
O=C(N[C@@]1(CCO)CCOC1)c1ccc(C(F)F)c(F)c1 | -7% | 1.17
COCc1c(C(=O)N2CCC(N3CCCCC3)CC2)cnn1-c1ncc(C)c(-c2cccs2)n1 | -7% | 0.95
CN(Cc1csc(-c2cccs2)n1)C(=O)[C@@H](N)Cc1c[nH]cn1 | -2% | 0.47
CCCN1CCN(CCCNC(=O)[C@H](C)n2nc(C)c3nn(-c4ccccc4)c(C)c3c2=O)CC1 | -2% | 0.29
C=CCN1CN=C(NS(=O)(=O)c2ccc(C)cc2)NC1 | 5% | -0.71
O=C(O)C1(CCCc2ccccc2)CCN(C[C@H]2CCOC2)CC1 | -9% | 1.67
CC1CCC(O)C(C2CCCN2C(=O)C2CC=CC2)C1 (stereo not given) | -11% | 1.07
Cc1occc1C(=O)NC1CCCCC1 | -5% | 0.78
O=C(Nc1ccc2c(c1)OCCO2)N[C@H]1CC(=O)N(c2ccc3c(c2)OCCO3)C1 | 15% | -1.95
CCO[C@H]1COC[C@@H]1n1cnc2c(Cl)ccc(Cl)c2c1=O | -14% | 2.34
CCC[C@H]1CN(C(=O)c2ccc(N3CCCC3=O)cc2)C[C@@H]1N(C)C | -17% | 2.86
Cc1cccnc1N1CC[C@H](NC(=O)c2ccccc2)[C@@H](O)C1 | -11% | 1.06
COc1cn(CC(=O)NC2CCCCCCC2)c(CO)cc1=O | 35% | -3.99
Cc1cc(C)n(CCC(=O)Nc2c(C)cnn2[C@@H](C)C2CC2)c(=O)n1 | -7% | 0.98
O=C(NC[C@@H](c1ccco1)n1cccn1)c1ccccc1F | -8% | 1.09
CCn1c(Cn2nc(C)c(C)c(C#N)c2=O)nc2cc(S(=O)(=O)N3CCCCC3)ccc21 | -15% | 2.39
CC(NC(=O)c1ccc(-c2cnccn2)cc1)C(O)Cc1ccccc1 (stereo not given) | -2% | 0.36
Cc1cc(-c2cccs2)nn1CCN | -3% | 0.33
N#Cc1ccc(O)c(NC(=O)c2snc(O)c2Cl)c1 | 42% | -6.09
COCC[C@@H](CO)NC(=O)Nc1cc(-c2cccc(F)c2)on1 | -3% | 0.44
CC(C)CCN1C[C@]23C=C[C@H](O2)C(C(=O)N2CCc4n[nH]cc4C2)C3C1=O (stereo not given in full) | -20% | 2.32

Compound | % Inhibition | Z score
CS(=O)(=O)Nc1ccc(F)c(NC(=O)N(Cc2nccs2)C2CC2)c1 | -12% | 2.29
O=C(N[C@H]1CCN(Cc2cscn2)C[C@@H]1O)c1cnc2c(c1)CCCC2 | 2% | -0.16
OC[C@@H]1CC[C@H](CNCc2ccc(OC(F)F)c(F)c2)O1 | 2% | -0.26
CN1C[C@@H](Nc2ccc(C#N)cc2F)CCC1=O | -5% | 0.64
CC[C@@H](Cn1c(=O)[nH]c2ccccc2c1=O)N1CCCC1 | 6% | -0.92
CC(C)(C)OCC(=O)N(Cc1ccccn1)c1ccc(F)cc1 | 10% | -1.04
CC1CCCC(C)C1NS(=O)(=O)c1ccnn1C (stereo not given) | 3% | -0.48
O=C(NCc1ccc2[nH]cnc2c1)C1(N2CCCC2)CCCC1 | -17% | 3.1
CO[C@H]1CCCC[C@@H]1NC(=O)CCc1ccc(C)cc1C | -15% | 2.78
C#CCC1(C(=O)N2CCCC(CNC(=O)CCC)C2)CCCN1C(=O)OC(C)(C)C (stereo not given) | -6% | 0.75
FC(F)(F)COCCCOc1nnc2ccccn12 | -9% | 1.21
COc1ccc(OCC(=O)NCC(C)C)c(C(N)=O)c1 | -10% | 0.87
Cc1ccc(CN(C)c2ncnc3nc(N)ccc23)cc1 | -7% | 0.7
CC1CCC(O)(CS(=O)(=O)Cc2csc(C3CC3)n2)CC1 (stereo not given) | -12% | 1.94
COc1cc(CN(C)Cc2cnccn2)cc(Cl)c1OCC(N)=O | -17% | 2.65
O=C(CC1CCN(C(=O)c2nnc(C(=O)Nc3ccccc3)s2)CC1)NCc1ccccn1 | -20% | 1.74
Cc1ncsc1C(=O)N1CC(=O)Nc2cnccc21 | -1% | 0.11
CCCOc1cc(CNS(=O)(=O)CC(CC)CC)ccn1 | 1% | -0.12
CC[C@H]1CN(C)CCCN1C(=O)c1cc(C)n(-c2cccc(F)c2)n1 | 2% | -0.44
